Some of the results follow.
Experiments:
Assay in all cases: glycan array binding signal (z-score within array); higher = stronger binding
Conditions in all cases: glycan notation: IUPAC condensed, linker removed
[1] = biological target: 3dGal(b1-3)[Fuc(a1-4)]Glc
How it was run: (§1)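 Arrays were curated from the Consortium for Functional Glycomics database, 3228 in total, and kept only where the protein sequence was available. Binding is expressed as a within-array Z-score. This score was averaged across arrays of the same protein sequence at different concentrations or buffers and across linkers, and negative values can be read as non-binding.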

3dGal(b1-4)Glc = biological target: 3dGal(b1-4)Glc
How it was run: as §1

[2] = biological target: Ara(a1-5)Ara(a1-5)Ara(a1-5)Ara(a1-5)Ara(a1-5)Ara
How it was run: as §1

[3] = biological target: Ara(a1-5)Ara(a1-5)Ara(a1-5)Ara(a1-5)Ara(a1-5)Ara(a1-5)Ara
How it was run: as §1

Fuc(a1-2)Gal = biological target: Fuc(a1-2)Gal
How it was run: as §1

[4] = biological target: Fuc(a1-2)Gal(b1-3)GlcNAc(b1-3)Gal(b1-4)Glc
How it was run: as §1

[5] = biological target: Fuc(a1-2)Gal(b1-3)GlcNAc(b1-3)[Fuc(a1-3)[Gal(b1-4)]GlcNAc(b1-6)]Gal(b1-4)Glc
How it was run: as §1

[6] = biological target: Fuc(a1-2)Gal(b1-3)[Fuc(a1-4)]GlcNAc(b1-3)Gal(b1-4)Glc
How it was run: as §1

[7] = biological target: Fuc(a1-2)Gal(b1-3)[Fuc(a1-4)]GlcNAc(b1-3)Gal(b1-4)[Fuc(a1-3)]GlcNAc(b1-3)Gal(b1-4)Glc
How it was run: as §1

[8] = biological target: Fuc(a1-2)Gal(b1-3)[Fuc(a1-4)]GlcNAc(b1-3)[Fuc(a1-2)]Gal(b1-4)Glc
How it was run: as §1

[9] = biological target: Fuc(a1-2)Gal(b1-3)[Fuc(a1-4)]GlcNAc(b1-3)[Fuc(a1-3)[Gal(b1-4)]GlcNAc(b1-6)]Gal(b1-4)Glc
How it was run: as §1

[10] = biological target: Fuc(a1-2)Gal(b1-3)[Fuc(a1-4)]GlcNAc(b1-3)[Gal(b1-4)GlcNAc(b1-6)]Gal(b1-4)Glc
How it was run: as §1

[11] = biological target: Fuc(a1-2)Gal(b1-4)[Fuc(a1-3)]GlcNAc(b1-3)Gal(b1-4)Glc
How it was run: as §1

[12] = biological target: Fuc(a1-2)Gal(b1-4)[Fuc(a1-3)]GlcNAc(b1-3)[Fuc(a1-2)]Gal(b1-4)Glc
How it was run: as §1

Fuc(a1-2)[Gal(a1-3)]Gal = biological target: Fuc(a1-2)[Gal(a1-3)]Gal
How it was run: as §1

[13] = biological target: Fuc(a1-2)[Gal(a1-3)]Gal(b1-4)GlcNAc(b1-3)Gal(b1-4)Glc
How it was run: as §1

[14] = biological target: Fuc(a1-2)[GalNAc(a1-3)]Gal
How it was run: as §1

[15] = biological target: Fuc(a1-2)[GalNAc(a1-3)]Gal(b1-3)GlcNAc(b1-3)Gal(b1-4)Glc
How it was run: as §1

[16] = biological target: Fuc(a1-2)[GalNAc(a1-3)]Gal(b1-3)[Fuc(a1-4)]GlcNAc(b1-3)Gal(b1-4)Glc
How it was run: as §1

[17] = biological target: Fuc(a1-2)[Neu5Ac(bond)]Gal(b1-3)GlcNAc(b1-3)Gal(b1-4)Glc
How it was run: as §1

Fuc(a1-3)GlcNAc6S = biological target: Fuc(a1-3)GlcNAc6S
How it was run: as §1

Fuc(a1-3)[Gal(b1-4)]Glc = biological target: Fuc(a1-3)[Gal(b1-4)]Glc
How it was run: as §1

[18] = biological target: Fuc(a1-3)[Gal(b1-4)]GlcNAc
How it was run: as §1

[19] = biological target: Fuc(a1-3)[Gal(b1-4)]GlcNAc(b1-3)Gal(b1-4)Glc
How it was run: as §1

[20] = biological target: Fuc(a1-3)[Gal(b1-4)]GlcNAc(b1-3)Gal(b1-4)[Fuc(a1-3)]Glc
How it was run: as §1

[21] = biological target: Fuc(a1-3)[Gal(b1-4)]GlcNAc(b1-3)[Fuc(a1-2)]Gal(b1-4)Glc
How it was run: as §1

[22] = biological target: Fuc(a1-3)[Gal(b1-4)]GlcNAc(b1-3)[Fuc(a1-3)[Gal(b1-4)]GlcNAc(b1-6)]Gal(b1-4)Glc
How it was run: as §1

[23] = biological target: Fuc(a1-3)[Gal3S(b1-4)]Glc
How it was run: as §1

[24] = biological target: Fuc(a1-3)[Gal3S(b1-4)]GlcNAc
How it was run: as §1

[25] = biological target: Fuc(a1-3)[Gal3S(b1-4)]GlcNAc(b1-3)Gal(b1-4)Glc
How it was run: as §1

[26] = biological target: Fuc(a1-3)[Gal3S(b1-4)]GlcNAc6S(b1-3)Gal(b1-4)Glc
How it was run: as §1

[27] = biological target: Fuc(a1-3)[Gal6S(b1-4)]GlcNAc(b1-3)Gal(b1-4)Glc
How it was run: as §1

Fuc(a1-6)GlcNAc = biological target: Fuc(a1-6)GlcNAc
How it was run: as §1

Gal(a1-4)Gal(b1-4)Glc = biological target: Gal(a1-4)Gal(b1-4)Glc
How it was run: as §1

Gal(a1-4)Gal(b1-4)GlcNAc = biological target: Gal(a1-4)Gal(b1-4)GlcNAc
How it was run: as §1

Gal(a1-6)Glc = biological target: Gal(a1-6)Glc
How it was run: as §1

Gal(b1-3)GalNAc = biological target: Gal(b1-3)GalNAc
How it was run: as §1

[28] = biological target: Gal(b1-3)GalNAc(b1-4)Gal(b1-4)Glc
How it was run: as §1

[29] = biological target: Gal(b1-3)GalNAc(b1-4)Gal3S(b1-4)Glc
How it was run: as §1

[30] = biological target: Gal(b1-3)GalNAc(b1-4)[Neu5Ac(a2-3)]Gal(b1-4)Glc
How it was run: as §1

[31] = biological target: Gal(b1-3)GalNAc(b1-4)[Neu5Gc(a2-3)]Gal(b1-4)Glc
How it was run: as §1

Gal(b1-3)GlcNAc = biological target: Gal(b1-3)GlcNAc
How it was run: as §1

[32] = biological target: Gal(b1-3)GlcNAc(b1-3)Gal(b1-4)Glc
How it was run: as §1

[33] = biological target: Gal(b1-3)GlcNAc(b1-3)Gal(b1-4)GlcNAc(b1-3)Gal(b1-4)Glc
How it was run: as §1

[34] = biological target: Gal(b1-3)GlcNAc(b1-3)Gal(b1-4)GlcNAc(b1-6)[Gal(b1-3)GlcNAc(b1-3)]Gal(b1-4)Glc
How it was run: as §1

B1: MIC4-A5 (Toxoplasma gondii), Q9XZH7 (protein)
chain: SPDFHDEVECVHTGNIGSKAQTIGEVKRASSLSECRARCQAEKECSHYTYNVKSGLCYPKRGKPQFYKYLGDMTGSRTCDTS
glycan array binding signal (z-score) [1]: -0.323 | glycan array binding signal (z-score) (3dGal(b1-4)Glc): -0.323 | glycan array binding signal (z-score) [2]: -0.323 | glycan array binding signal (z-score) [3]: -0.322 | glycan array binding signal (z-score) (Fuc(a1-2)Gal): -0.322 | glycan array binding signal (z-score) [4]: -0.303 | glycan array binding signal (z-score) [5]: -0.317 | glycan array binding signal (z-score) [6]: -0.318 | glycan array binding signal (z-score) [7]: -0.323 | glycan array binding signal (z-score) [8]: -0.323 | glycan array binding signal (z-score) [9]: -0.322 | glycan array binding signal (z-score) [10]: -0.318 | glycan array binding signal (z-score) [11]: -0.323 | glycan array binding signal (z-score) [12]: -0.319 | glycan array binding signal (z-score) (Fuc(a1-2)[Gal(a1-3)]Gal): 2.08 | glycan array binding signal (z-score) [13]: -0.323 | glycan array binding signal (z-score) [14]: -0.323 | glycan array binding signal (z-score) [15]: -0.316 | glycan array binding signal (z-score) [16]: -0.289 | glycan array binding signal (z-score) [17]: -0.323 | glycan array binding signal (z-score) (Fuc(a1-3)GlcNAc6S): -0.323 | glycan array binding signal (z-score) (Fuc(a1-3)[Gal(b1-4)]Glc): 2.1 | glycan array binding signal (z-score) [18]: 1.07 | glycan array binding signal (z-score) [19]: -0.321 | glycan array binding signal (z-score) [20]: -0.32 | glycan array binding signal (z-score) [21]: -0.323 | glycan array binding signal (z-score) [22]: -0.323 | glycan array binding signal (z-score) [23]: -0.323 | glycan array binding signal (z-score) [24]: -0.323 | glycan array binding signal (z-score) [25]: -0.323 | glycan array binding signal (z-score) [26]: -0.323 | glycan array binding signal (z-score) [27]: -0.323 | glycan array binding signal (z-score) (Fuc(a1-6)GlcNAc): -0.323 | glycan array binding signal (z-score) (Gal(a1-4)Gal(b1-4)Glc): -0.314 | glycan array binding signal (z-score) (Gal(a1-4)Gal(b1-4)GlcNAc): -0.279 | glycan array binding signal (z-score) (Gal(a1-6)Glc): -0.21 | glycan array binding signal (z-score) (Gal(b1-3)GalNAc): 0.274 | glycan array binding signal (z-score) [28]: 2.49 | glycan array binding signal (z-score) [29]: 5.56 | glycan array binding signal (z-score) [30]: 5.3 | glycan array binding signal (z-score) [31]: 4.89 | glycan array binding signal (z-score) (Gal(b1-3)GlcNAc): 1.02 | glycan array binding signal (z-score) [32]: 3.01 | glycan array binding signal (z-score) [33]: -0.012 | glycan array binding signal (z-score) [34]: 1.72

Source: the supplement of paper PMC8728848
